Test results reported in PubChem BioAssay AID493208 (National Center for Advancing Translational Sciences (NCATS), 2011).
Screen size: about 44,000 compounds; about 340 (0.77%) were called active. Inconclusive results (about 5%) are left out. Calls follow the shape of the dose curve; as a rule, active = well fitted inhibition curve with a large enough effect; inconclusive = small, poorly fitted or top-dose-only effect; inactive = flat fitted curve, though single readings scatter. The list shows a part of the results.

assay: Acumen qHTS Assay for Inhibitors of the mTORC1 Signaling Pathway in MEF (Tsc2-/-, p53-/-) Cells: Sytravon; conditions: phospho-rpS6 immunofluorescence/PI, 24 h; series mostly up to 38.3 µM; activity change, negative = inhibition: at the top concentration;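 also: plate controls were DMSO for no effect and rapamycin for full effect; nearly all actives have a fitted effect of over 50% in size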
Outline: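 Read-out: phospho-S6 Alexa-488 intensity over PI intensity per well, scored as % active cells using thresholds from rapamycin (7.5 nM) and DMSO controls. Tsc2-/-, p53-/- MEFs exposed to compound for 24 h; PI cell count recorded as viability.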

Activity change, negative = inhibition, inactive:
CCOc1ccc(NC(=O)CC2C(=O)N(c3ccc(C)cc3)C(=O)N2Cc2ccc(OC)cc2)cc1 (stereo not drawn) 2.22%
CCC(=O)N1CCc2cc(Br)cc(S(=O)(=O)N(CC)Cc3ccccc3)c21 -8.38%
COc1ccc(OC)c(NC(=O)N(C)CCc2c(C)nn(C)c2C)c1 0%
CCc1cccc(C)c1NC(=O)c1cn2c3c(ccc(Cl)c3c1=O)OC(C)C2 (stereo not drawn) -4.78%
Cc1ccc(-c2nc3ncccc3o2)cc1NC(=O)c1ccc(-c2cccc(Cl)c2C)o1 2.03%
Cc1nc(-c2cccc(F)c2)sc1CCNC(=O)C(=O)Nc1ccc2c(c1)OCO2 -3.22%
CCOc1ccc(S(=O)(=O)NCC(c2ccc(N(C)C)cc2)N2CCc3ccccc32)cc1 (stereo not drawn) -15.8%
CCCCN(C)S(=O)(=O)c1cc(-c2cc(C)no2)ccc1C -4.73%
COC(=O)CSc1ccc2nnc(CCNS(=O)(=O)c3ccccc3)n2n1 -3.46%
Cc1cc(-c2nc3ncccc3o2)ccc1NC(=O)c1ccc(Cl)cc1 -0.0773%
Cc1cccc(NC(=O)c2c(N)sc3c2CCC(C)C3)c1 (stereo not drawn) -16.1%
COc1ccc(-c2cccc(NS(=O)(=O)c3cc(C)ccc3OC)c2)nn1 0%
O=C(Nc1ccc2nn(-c3ccc(Cl)cc3)nc2c1)c1cc2ccccc2o1 1.92%
Cc1ccccc1Nc1c(-c2ccc(N3CCOCC3)cc2)nc2ccc(Cl)cn12 0.386%
Cc1ccccc1NC(=O)c1c(NC(=O)c2cccs2)sc2c1CCC(C)C2 (stereo not drawn) 3.68%
COc1ccc(C(=O)NCC(c2ccco2)S(=O)(=O)c2cccs2)cc1 (stereo not drawn) -1.65%
N#Cc1nc(/C=C/c2ccc(F)cc2)oc1NC1CCCCC1 -1.44%
COc1ccc(N(C)C(=O)C2CCN(S(=O)(=O)c3cc(Br)cc4c3N(C(C)=O)CC4)CC2)cc1 3.67%
Cc1ccc(OCc2cc(=O)n3ccsc3n2)c(NC(=O)c2ccco2)c1 0.0461%
Cn1c(=O)n(C)c2cc(N3CCCCC3)c(NC(=O)c3c(F)cccc3F)cc21 -3.79%
CCOC(=O)c1cc(-c2ccccc2)n(CCC(=O)NCCc2ccc(OC)c(OC)c2)c1C -8.27%
COc1ccc(-c2nc3cc(NC(=O)c4cc5ccccc5o4)ccc3o2)cc1 3.79%
Cc1ccn2c(Nc3ccccc3C)c(-c3ccccc3)nc2c1 1.91%
Cc1cccc(OCC(=O)Nc2ccccc2OCc2cc(=O)n3cc(C)ccc3n2)c1 -3.34%
Cc1ccc(NC(=O)CSc2nnc(COc3ccc(Cl)cc3)o2)c(C)c1 2.26%
O=C(Nc1ccc2nc(SCC(=O)N3CCOCC3)sc2c1)c1ccccc1Cl 0.771%
Cc1ccc(NCc2cccn2-c2nnc(N3CCC(C(=O)NCc4ccc(F)cc4)CC3)s2)cc1 -3.87%
CCn1ccc2cc(S(=O)(=O)N3CCC(C(=O)NCc4ccc(F)cc4)CC3)ccc21 -8.64%
O=C(Cn1c(=O)n2nc(-c3cccc(F)c3)nc2c2ccccc21)NCc1ccc(Cl)cc1 3.08%
COc1cccc(NC(=O)Cn2c(=O)n(Cc3ccco3)c(=O)c3cc(OC)c(OC)cc32)c1 -20.5%
COc1ccccc1CNC(=O)CS(=O)(=O)Cc1nc(-c2ccccc2C)oc1C -0.493%
CSc1ccc(CNC(=O)Cn2ccc3cc(S(=O)(=O)N4CCCC4)ccc32)cc1 -9.04%
CC(C)CCNC(=O)CSc1nc2ccccc2nc1Cc1ccc(Cl)cc1 2.95%
CN(C)c1ccc(C(=O)NCc2ccc3c(c2)CCN3C(=O)c2ccccc2)cc1 -1.46%
CC1CCN(c2nc(-c3ccc(Br)cc3)nc3ccccc23)CC1 0.802%
CN(C)c1ccc(CNC(=O)c2sc3ncccc3c2-n2cccc2)cc1 0.203%
Cc1cc(C)cc(NC(=O)CCN2C(=O)c3ccccc3Sc3ncccc32)c1 2.37%
CC1CCCCN1CCCNC(=O)Cn1ncc2c3ccccc3n(Cc3ccccc3F)c2c1=O (stereo not drawn) -0.352%
Cc1ccc(-c2cc(C(F)(F)F)c(C#N)c(SCC(=O)Nc3ccccc3F)n2)cc1 -0.281%
CCN(c1ncnc2c1cnn2-c1cccc(Cl)c1)C1CCCCC1 -0.604%
COc1cccc(CNC(=O)CN2C(=O)CSc3ccc(S(=O)(=O)N4CCCC4)cc32)c1 1.34%
COCCn1c(C)cc(O)c(C(c2ccc(Cl)cc2)N2CCCCC2)c1=O (stereo not drawn) 5.94%
COc1ccc(C2C(=O)N(C3CCCCC3)CC(=O)N2C2CCCCC2)cc1 (stereo not drawn) 4.81%
CCN(Cc1ccccc1)C(=O)C(CC(C)C)NS(=O)(=O)c1ccc2c(c1)CCN2C(C)=O (stereo not drawn) -0.922%
O=C(Nc1ccc2nc(SCC(=O)N3CCOCC3)sc2c1)c1ccc(Cl)cc1 0.885%
O=C(c1ccccc1)N1CCCCC1CCN1CCCCC1 (stereo not drawn) 3.94%
Cc1ccc(-n2c(=O)c3ccccc3n(CC(=O)Nc3cccc(C(F)(F)F)c3)c2=O)cc1 -0.0733%
Cc1cccc(N2CCN(C(=O)c3nn(C)c4c3CS(=O)(=O)c3ccccc3-4)CC2C)c1 (stereo not drawn) 10.4%
N#C/C(=C\c1ccc(Cl)cc1)c1nc(-c2cc3c(ccc4ccccc43)oc2=O)cs1 -9.06%
COc1cccc(N2CCN(c3ncnc4onc(-c5ccc(Cl)cc5)c34)CC2)c1 -2.94%
CN(C1CCCCC1)S(=O)(=O)c1ccc2c(c1)c(=O)c(C(=O)NCc1ccc(Cl)cc1)cn2C 0.233%
O=C(CN1C(=O)CC(c2ccc(F)cc2)=Nc2ccccc21)NCc1ccccc1Cl -17%
COc1ccc(C(=O)Nc2ccc(-c3cc(C(F)(F)F)nn3-c3ccccc3)cc2)cc1OC 4.5%
CC(NC(=O)c1cc2sccc2n1Cc1ccc(F)cc1)c1ccccc1 (stereo not drawn) -15.9%
CCc1cccc(C)c1NS(=O)(=O)c1ccc(-n2cccn2)cc1 -3.97%
COc1ccc(-c2nn(-c3ccc(F)cc3F)c3c2cnc2ccc(F)cc23)cc1 0%
CC(=O)N1CCCc2cc(S(=O)(=O)NCc3ccc(OC(C)C)cc3)ccc21 -8.6%
N#Cc1ccccc1NC(=O)C(=O)NCC(c1cccnc1)N1CCN(c2ccccc2)CC1 (stereo not drawn) 0%
Cc1cccc(C(=O)Nc2cccc(C(=O)OCc3cc(=O)n4nc(C5CC5)sc4n3)c2)c1 0%
CCOc1ccc(C(=O)Nc2ccc3nc(SCC(=O)N4CCOCC4)sc3c2)cc1 -3.75%
Cc1ccc(OCC(=O)Nc2ccc(-c3nc4ccc(C)cc4o3)cc2)cc1 -4.2%
CCN1CCN(C(=O)c2ccc3c(c2)N(Cc2cc(C)ccc2C)C(=O)c2ccccc2S3(=O)=O)CC1 -1.9%
CCOC(=O)c1c(C)oc2nc(C)nc(NCCc3ccc(S(N)(=O)=O)cc3)c12 2.72%
O=C(NCCc1ccccc1)c1cnc2sc(N3CCOCC3)nn2c1=O -0.668%
CCOc1ccccc1Nc1ccc2cc(S(=O)(=O)N3CCCCC3)ccc2n1 -20.4%
CCCSCCCNC(=O)CN1C(=O)COc2ccc(S(=O)(=O)N3CCCCCC3)cc21 -5.33%
Cc1cc(NC(=O)CN(c2cccc(C)c2C)S(=O)(=O)c2ccccc2)ccc1Br -17.7%
O=C(Nc1ccc(F)cc1F)C1CCCN1S(=O)(=O)c1cccc2nsnc12 (stereo not drawn) -4.68%
COc1ccc(CCC(=O)NCc2ccc3c(c2)CCN3C(=O)c2cccc(C)c2)cc1 -6.13%
CCCOc1ccc(CNC(=O)C2CCN(c3nn4c(=O)cc(C)nc4s3)CC2)cc1 -0.225%
CCOC(=O)c1[nH]c(C)c(C(=O)NCc2ccc(F)cc2)c1C -5.46%
Cc1cccc(-c2nnc(SCCC(=O)O)o2)c1 -0.398%
Cc1cccc(NC(=O)CN2C(=O)CCc3ccccc32)c1C -12.6%
CCOc1ccc(CCNC(=O)c2cnc3c(-c4ccccc4)c(C)nn3c2C)cc1OCC -9.55%
COc1ccc(N2CCN(c3oc(/C=C/c4cccc(OC)c4)nc3C#N)CC2)cc1 3.38%
CCc1ccc(CNC(=O)C2CCN(c3nnc(-n4c(C)ccc4C)s3)CC2)cc1 -4.32%
O=[N+]([O-])c1ccc(C(c2sc3nc(-c4ccco4)nn3c2O)N2CCC3(CC2)OCCO3)cc1 (stereo not drawn) -3.95%
CC(C)c1ccc(OCC(=O)Nc2cc(-c3nc4ncccc4o3)ccc2Cl)cc1 -0.434%
COc1ccccc1CNC(=O)C(C)n1c(=O)cc(C(F)(F)F)c2c(C)nn(C)c21 (stereo not drawn) 4.26%
CCCCC(=O)Nc1ccc(OCc2cc(=O)n3ccc(C)cc3n2)cc1 8.77%
CCCCN(CCCC)c1nc(-c2ccccc2)nc2ccccc12 9.17%
Cc1oc(-c2cccc(Cl)c2)nc1CSCC(=O)O 5.13%
CCN(C(=O)c1cc2c(Cl)nc3ccc(C)cc3c2s1)c1cc(OC)ccc1OC -14.7%
CCC(=O)Nc1ccc(C)cc1-c1nc2ccccc2n(Cc2ccccc2)c1=O 0.333%
COc1ccccc1C(=O)Nc1c(C(=O)Nc2ccc(C)cc2)oc2ccccc12 -0.644%
CC1(c2ccccc2)CC(C)(C)N(C(=O)c2ccccc2Cl)c2ccccc21 (stereo not drawn) -0.922%
COc1ccc(NC(=O)C2CCCN2S(=O)(=O)c2ccc3c(c2)CCCC(=O)N3)cc1Cl (stereo not drawn) 6.3%
COc1ccccc1CNC(=O)c1cc(-c2ccccc2)n[nH]1 -8.25%
Cc1ccc2nc(NC(=O)CSc3ncc(C(=O)Nc4ccccc4)c(=O)n3C)sc2c1 -0.184%
O=C(NCCCN1CCN(c2cccc(Cl)c2)CC1)c1nnc(Cc2ccc(F)cc2Cl)o1 1.44%
Cc1ccc(N2C(=O)C(CC(=O)Nc3ccccc3)N(CCC3=CCCCC3)C2=O)cc1 (stereo not drawn) -6.12%
CCc1ccc(S(=O)(=O)c2cnc(SCC(=O)Nc3ccc(OC)cc3OC)[nH]c2=O)cc1 -2.21%
Cn1c2ccc(F)cc2c2nnc(SCCN3CCCCC3)nc21 -16.3%
CC(C)NC(=O)c1sc2ncccc2c1-n1cccc1 3.75%
CCOc1ccc(CCNC(=O)c2sc3nc4n(c(=O)c3c2C)CCCC4)cc1 7.3%
Cc1sc2c(c1C)c(=O)n(Cc1ccccc1)c(=O)n2CC(=O)Nc1cccc(Cl)c1 -11.1%
O=C(O)Cn1nc(N2CCN(c3ccccc3)CC2)ccc1=O 2.5%
CCOC(=O)Cn1cnc2c(cnn2-c2ccc(C)c(C)c2)c1=O -4.84%
